From PMC5892938 come the findings set out here.

The list shows a part of the results. At the low end of the ranking, values are background and their order means little.

This experiment deals with GST-SBP-SLBP (stem-loop binding protein) (UniProt Q14493). Description: targeted RNA Bind-n-Seq.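 Note: DESeq read counts versus GST-SBP nonspecific binding control pulldown.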 Particulars: RBNS binding buffer: 25 mM Tris pH 7.5, 150 mM KCl, 3 mM MgCl2, 0.1% Tween, 0.5 mg/mL BSA, 1 mM DTT; 27 nM protein, 750 pM RNA pool; temperature not stated; high values mean tight binding.
Turning to “GGUCACGUCUCAAUCAACUCUUCCCCAGGAGUUUUCUCCUGCAUACUCAACAGCUCGCAGUCAAG”, the binding signal (log2 fold change) stood at 0.165.
To “GGUCACGUCUCAAUCAACUCUUCUCCCAGGGAAAUCCCUGGUAUAUUCAACAGCUCGCAGUCAAG” belongs 0.027.
To “GGUCACGUCUCAAUCAACUCAAUCUCCAGGGAAAGCCCUGGCUUUCUCAACAGCUCGCAGUCAAG” belongs 0.0528.
To “GGUCACGUCUCAAUCAACUCUUCUUCAGGAGUUUACUCCUGUAAUGUCAACAGCUCGCAGUCAAG” belongs -0.168.
Consider “GGUCACGUCUCAAUCAACUCAUCCUCCAGGGAAAGCCCUGGUUAUUUCAACAGCUCGCAGUCAAG”, for which the binding signal (log2 fold change) is -0.0676.
To “GGUCACGUCUCAAUCAACUCUAUUCCAGGAGUUUACUCCUGCAAACUCAACAGCUCGCAGUCAAG” belongs 0.117; to “GGUCACGUCUCAAUCAACUCAUUUUCAGGAGUUUGCUCCUGUUAUUUCAACAGCUCGCAGUCAAG”, -0.0335.
To “GGUCACGUCUCAAUCAACUCCCCAGAGGGGGGGAAAACCCCUUUACCCUCAUAAUCAACAGCUCGCAGUCAAG” belongs 0.276; to “GGUCACGUCUCAAUCAACUCCAACGAGGGGGGGAAAACCCCUUUACCCUCAUCUUCAACAGCUCGCAGUCAAG”, -0.454; to “GGUCACGUCUCAAUCAACUCUUUUUCAGGAGUUUUCUCCUGUUAUCUCAACAGCUCGCAGUCAAG”, 0.0693.
The figure for “GGUCACGUCUCAAUCAACUCAUUUCCCAGGGAAAGCCCUGGCAUACUCAACAGCUCGCAGUCAAG” is -0.277.
As for “GGUCACGUCUCAAUCAACUCUUCCCCCAGGGAAAGCCCUGGCAAUCUCAACAGCUCGCAGUCAAG”, the binding signal (log2 fold change) worked out at 0.0922.
The figure for “GGUCACGUCUCAAUCAACUCUUUCCCAGGAGUUUUCUCCUGCAUAUUCAACAGCUCGCAGUCAAG” is 0.04.
The figure for “GGUCACGUCUCAAUCAACUCUAUUCCCAGGGAAACCCCUGGUAUUCUCAACAGCUCGCAGUCAAG” is 0.172.
To “GGUCACGUCUCAAUCAACUCCUAAGAGGGGGGGAAAACCCCUUUGCCCUCAUAAUCAACAGCUCGCAGUCAAG” belongs 0.118.
For “GGUCACGUCUCAAUCAACUCUUUAGAGGGGGGGAAAACCCCUUUGCCCUCACAUUCAACAGCUCGCAGUCAAG”, the binding signal (log2 fold change) was 0.0244.
To “GGUCACGUCUCAAUCAACUCAACGGAGGGGGGGAAAACCCCUUUACCCUCAAUUUCAACAGCUCGCAGUCAAG” belongs -0.0687; to “GGUCACGUCUCAAUCAACUCAUUUUCAGGAGUUUCCUCCUGUUAUUUCAACAGCUCGCAGUCAAG”, -0.0345.
The figure for “GGUCACGUCUCAAUCAACUCAUCAGAGGGGGGGAAAACCCCUUUGCCCUCACUAUCAACAGCUCGCAGUCAAG” is 0.0481.
To “GGUCACGUCUCAAUCAACUCAAUCUCAGGAGUUUUCUCCUGCUUUCUCAACAGCUCGCAGUCAAG” belongs -0.0354.
